# Experimental data as given in the supplement of paper PMC3334620.
# Over roughly 33,000 sequences, “E-score (-0.5 to 0.5)” has its median near -0.013; the highest 2% begin near 0.3. This is one part of the list.
# Target: T1, Msn1 (UniProt P22148)
# T1 sequence: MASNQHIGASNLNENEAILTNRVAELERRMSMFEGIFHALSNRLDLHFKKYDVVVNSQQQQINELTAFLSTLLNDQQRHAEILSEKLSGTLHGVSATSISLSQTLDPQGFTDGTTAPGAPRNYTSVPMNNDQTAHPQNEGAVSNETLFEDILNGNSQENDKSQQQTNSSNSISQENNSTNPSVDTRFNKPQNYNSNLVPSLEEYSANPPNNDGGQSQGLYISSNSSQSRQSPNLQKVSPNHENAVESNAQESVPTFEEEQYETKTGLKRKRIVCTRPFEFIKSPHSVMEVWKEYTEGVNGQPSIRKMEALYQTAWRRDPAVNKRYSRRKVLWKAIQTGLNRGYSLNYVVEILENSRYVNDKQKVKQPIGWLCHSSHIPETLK
# Experiment: PBM E-score (8-mer binding enrichment) (E-score (-0.5 to 0.5)); higher = stronger / more preferred TF binding; most listed sequences are background and not binding sites
# Conditions: protein concentration: 200 nM; construct: GST-full length
# Summary of the method: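 Each ungapped eight-base word and its reverse complement, pooled, received an E-score from the Universal PBM Analysis Suite. Underlying scans, normalised with masliner, recorded fluorescent anti-GST bound to GST-tagged yeast transcription factors. These were applied at about 100-200 nM to universal all-10-mer Agilent arrays double-stranded by primer extension.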
row,Sequence,PBM E-score
1,GCGACTAC,-0.0798
2,ACTGGCTG,-0.232
3,CCATGCAA,0.118
4,AAAGCATT,0.0712
5,CGATCTAA,0.109
6,GGGGGACC,-0.442
7,AACCCAGT,-0.0862
8,CACTGCCA,-0.00668
9,AAGGTGTA,0.0651
10,CAATGGTC,0.112
11,CAAATCCG,0.176
12,CACAACAG,-0.113
13,CTTGGTCC,0.064
14,AGAATACG,-0.0196
15,AAGGGAAG,-0.0141
16,CAGCAGGA,-0.216
17,AACCGGGA,0.0147
18,GAACACAC,-0.137
19,TCAGTGCA,-0.1
20,AAAGGTTC,-0.134
21,AGATTTTC,0.0741
22,CGTCAGAC,0.0686
23,CACGGCAG,0.0331
24,AACGGCGC,-0.0284
25,CGTCCGAA,0.222

row,Sequence,PBM E-score
1,GTCTTTTA,0.0918
2,AACGTAAA,0.0642
3,ATAGGTCC,0.12
4,ATGATGTG,-0.00297
5,AACCCTAA,0.0238
6,AGCCCCTG,-0.42
7,ATAGAAGG,-0.0499
8,GCAAGTGC,-0.203
9,CTGCGCTC,-0.19
10,AGTGCCCG,0.0217
11,ACGCGTCT,0.00594
12,GACGTCAA,-0.00044
13,GCACGGGC,-0.351
14,ATCTTTTA,0.0434
15,CTGAATGA,0.052
16,AAAGCCGT,-0.068
17,CTAGGAAC,-0.138
18,CTACAGCC,-0.162
19,AAAACTGC,-0.0241
20,ACGGTCGA,-0.0095
21,CGCATGCG,-0.0158
22,AACCGTTG,0.12
23,CGTGGACA,0.408
24,ACAGGGCC,-0.0844
25,CATGCCCA,-0.09

row,Sequence,PBM E-score
1,ACGAAAGG,0.113
2,CCCTAATC,-0.298
3,GCGGCCGC,-0.207
4,ACACTCAT,0.0832
5,ACGAAGTC,0.0318
6,AGCGTGTG,-0.162
7,CAACGACG,-0.0172
8,ATAAACGA,0.257
9,ATCTTGGA,-0.0269
10,ACTCTAGA,-0.0148
11,CGAGACAC,0.183
12,AGGCCAAC,-0.129
13,GTTGTTTA,0.17
14,CTGAATCA,0.0584
15,GCATGGAC,0.268
16,CAGACCGG,-0.152
17,ATTGATGC,-0.0539
18,CGATCGAG,-0.00159
19,GCATAACA,-0.13
20,CCGGCACA,0.111
21,ATATAAAA,0.187
22,AGAGGCCG,-0.32
23,ACGGTTTA,-0.14
24,ACTTATCT,0.0527
25,GTGAACGA,-0.0586

row,Sequence,PBM E-score
1,GCTTTTAC,0.0371
2,CACGAGAA,-0.115
3,CCATCGGA,-0.0237
4,CTCGTGAA,-0.0497
5,GACCTAGC,-0.075
6,GCGGTTAA,0.0384
7,AAAGCCCC,-0.163
8,CTCTGTGC,-0.113
9,CAAAAGAA,0.244
10,CCATGCTC,-0.189
11,CTTGTCTC,0.319
12,CAAGATTA,-0.0501
13,CAAAGCAG,0.0425
14,CTTTGATA,0.058
15,AGGAGGAG,-0.325
16,CGGTGTTC,0.0781
17,ACAGGCGT,-0.244
18,ACTTATAT,0.254
19,ATCTTTAA,0.182
20,AGGGGCGC,-0.123
21,AAACTTTC,0.0339
22,AAGGAGCC,-0.272
23,ACGTGAGG,-0.0988
24,ATTAATGA,0.185
25,ATCAGAGG,-0.139

row,Sequence,PBM E-score
1,AAACAATC,0.206
2,CGCTTGAA,0.174
3,CAATCCCA,-0.149
4,ATACATGG,0.0654
5,GGTACGAA,0.178
6,AGGCGAAT,-0.00718
7,GCTCACAC,-0.162
8,ATGCTGGG,-0.12
9,GAGATGCA,-0.1
10,AAGTCGGC,0.00893
11,AATTTACG,0.192
12,ACCAGTCG,-0.0766
13,ATCGTGTC,0.276
14,CAGAGAAA,0.118
15,CCAGATCG,-0.102
16,CGCAACAG,-0.0225
17,CCCACTTA,-0.0848
18,ATTTTCAA,0.165
19,ACATAGAA,0.0149
20,GCTCCCAC,-0.135
21,AGCTGCCA,-0.133
22,CAAACTAC,0.0778
23,CGTTCCGC,-0.0668
24,CTGGATTC,0.00621
25,CAGCCCTG,-0.307

row,Sequence,PBM E-score
1,ACTTCCTC,-0.219
2,CAGCGGAC,0.142
3,AAGACAAA,0.45
4,CTTTGATC,-0.14
5,CACTAAAG,0.0433
6,TAAAGGTA,0.0726
7,ATACCTCA,-0.0322
8,ATTACAAC,0.0519
9,CAGCTACC,-0.198
10,CAATCCGG,0.105
11,ATTGCTCA,0.157
12,AGATTGTG,-0.0281
13,ATTTGCTC,-0.114
14,CGACGCAG,-0.0485
15,TCCCGTAA,-0.0411
16,AACTGCAC,-0.00259
17,AACAGCTG,0.0499
18,GCTGAAGA,-0.12
19,AGAGAAAG,-0.0528
20,CCACTTCG,0.0364
21,CAACTGTA,0.00279
22,ATGTCAGG,0.158
23,CCCGAGGA,-0.0263
24,ATTGTTTC,0.182
25,TCTCGACA,0.0704

row,Sequence,PBM E-score
1,CACCTAAC,-0.0621
2,CTGGTTTA,-0.0342
3,GCTTTCGA,-0.175
4,AGTACACA,0.298
5,CTTATCTA,0.0318
6,ATGCGAAA,0.126
7,AGTGGGAC,0.118
8,ATAAGTAG,-0.0559
9,ACACAGGT,0.0743
10,CACAAGGG,-0.0472
11,AGGTGGCC,-0.314
12,AATGAAGA,0.143
13,GGCCCGCA,-0.252
14,CCTTCCAG,-0.226
15,AGATGCCA,-0.152
16,AGCCGCGC,0.00067
17,AGAGCGTG,-0.137
18,CCATGACC,-0.24
19,GAGTCTTA,-0.0395
20,GGTCTCCA,-0.154
21,AATTACGA,0.163
22,CCTTGACG,-0.238
